In the supplement of paper PMC12217912:
Some of the results follow. Sequences were assembled here from the parent chain. Inactive controls read about 0.05.

B1: TEV protease; numbered along this chain (parent)
chain: MGESLFKGPRDYNPISSSICHLTNESDGHTTSLYGIGFGPFIITNKHLFRRNNGTLVVQSLHGVFKVKDTTTLQQHLVDGRDMIIIRMPKDFPPFPQKLKFREPQREERICLVTTNFQTKSMSSMVSDTSCTFPSGDGIFWKHWIQTKDGQCGSPLVSTRDGFIVGIHSASNFTNTNNYFTSVPKNFMELLTNQEAQQWVSGWRLNADSVLWGGHKVFMVKPEEPFQPVKEATQL

Variants of: B1
Assay: raw area under fraction-flipped curve 0-4 h after induction (AUC4h, not background-subtracted), DNA-recorder readout of cleavage of the substrate (dimensionless); higher = more cleavage of the substrate by the protease variant
Conditions: temperature: 34 °C; time window: 0-4 h after rhamnose induction
Description: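 In vivo DNA recorder in E. coli TOP10(DE3) ΔrhaA at 34 °C. Each TEVp single-site mutant (parent TEVp 0) is paired with a single-site variant of the 7-mer TEVs (canonical ENLYFQ|S). The substrate sits between flexible linkers in a Bxb1-sfGFP-TEVs-SsrA fusion, so cleavage stabilises Bxb1 and speeds flipping of a recombination array, read by NGS. The value is the raw area under the fraction-flipped curve over 0-4 h after rhamnose induction (AUC4h), with ≥20 reads per time point. It is not background-subtracted; inactive controls average about 0.047.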
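Also: Bxb1 expression induced with 0.2% (w/v) L-rhamnose at OD600 near 0.5, cultures sampled hourly, flipped fraction per protease–substrate barcode pair counted by paired-end Illumina sequencing.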

## MGESLFKGPRDYNPISSSICHLTNESDGHTTSLYGVGFGPFIITNKHLFRRNNGTLVVQSLHGVFKVKDTTTLQQHLVDGRDMIIIRMPKDFPPFPQKLKFREPQREERICLVTTNFQTKSMSSMVSDTSCTFPSGDGIFWKHWIQTKDGQCGSPLVSTRDGFIVGIHSASNFTNTNNYFTSVPKNFMELLTNQEAQQWVSGWRLNADSVLWGGHKVFMVKPEEPFQPVKEATQL [I36V]
  area with substrate ANLYFQS: 0.063
  area with substrate CNLYFQS: 0.097
  area with substrate DNLYFQS: 0.0946
  area with substrate FNLYFQS: 0.0625
  area with substrate HNLYFQS: 0.0693
  area with substrate KNLYFQS: 0.0796
  area with substrate LNLYFQS: 0.0719
  area with substrate MNLYFQS: 0.0691
  area with substrate NNLYFQS: 0.0682
  area with substrate QNLYFQS: 0.0596
  area with substrate SNLYFQS: 0.0653
  area with substrate VNLYFQS: 0.0686
  area with substrate YNLYFQS: 0.0695

## MGESLFKGPRDYNPISSSICHLTNESDGHTTSLYGIGFGPFIITNKHLFRRNNGTLVVQSLHGVFKVKDTTTLQQHLVDGRDMIIIRMPKDFPPFPQKLKFREPQREERICLVTTNFQTKSMSSMVSDTSCTFPSGDGIFWKHWIQTKDGQCGSPLVSTRDGFIVGIHSASNFTNTNNYFTSVPKNFMELLTNQEAQQWVSGWRLNADSVLWGGHKVFMVKPEEPFQPVVEATQL [K230V]
  area with substrate ANLYFQS: 0.0618
  area with substrate CNLYFQS: 0.0874
  area with substrate DNLYFQS: 0.0799
  area with substrate FNLYFQS: 0.0707
  area with substrate GNLYFQS: 0.0674
  area with substrate HNLYFQS: 0.0536
  area with substrate KNLYFQS: 0.0643
  area with substrate LNLYFQS: 0.0717
  area with substrate NNLYFQS: 0.0708
  area with substrate QNLYFQS: 0.0693
  area with substrate SNLYFQS: 0.056
  area with substrate WNLYFQS: 0.058
  area with substrate YNLYFQS: 0.0595

## MGESLFKGPRDYNPISSSICHLTNESDGHTTSLYGIGFGPFIITNKHLFRRNNGTLVVQSLHGVFKVKDTTTLQQHLVDGRDMIIIRMPKDFPPFPQKLKFRAPQREERICLVTTNFQTKSMSSMVSDTSCTFPSGDGIFWKHWIQTKDGQCGSPLVSTRDGFIVGIHSASNFTNTNNYFTSVPKNFMELLTNQEAQQWVSGWRLNADSVLWGGHKVFMVKPEEPFQPVKEATQL [E103A]
  area with substrate ANLYFQS: 0.0609
  area with substrate CNLYFQS: 0.0686
  area with substrate DNLYFQS: 0.0915
  area with substrate GNLYFQS: 0.0579
  area with substrate HNLYFQS: 0.0684
  area with substrate INLYFQS: 0.0849
  area with substrate KNLYFQS: 0.0621
  area with substrate NNLYFQS: 0.0637
  area with substrate QNLYFQS: 0.0634
  area with substrate TNLYFQS: 0.0658
  area with substrate WNLYFQS: 0.046

## MGESLFKGPRDYNPISSSICHLTNESDGHTTSLYGIGFGPFIITNKFLFRRNNGTLVVQSLHGVFKVKDTTTLQQHLVDGRDMIIIRMPKDFPPFPQKLKFREPQREERICLVTTNFQTKSMSSMVSDTSCTFPSGDGIFWKHWIQTKDGQCGSPLVSTRDGFIVGIHSASNFTNTNNYFTSVPKNFMELLTNQEAQQWVSGWRLNADSVLWGGHKVFMVKPEEPFQPVKEATQL [H47F]
  area with substrate ANLYFQS: 0.0569
  area with substrate CNLYFQS: 0.0564
  area with substrate DNLYFQS: 0.0554
  area with substrate GNLYFQS: 0.0511
  area with substrate HNLYFQS: 0.0573
  area with substrate INLYFQS: 0.0387
  area with substrate KNLYFQS: 0.0589
  area with substrate LNLYFQS: 0.0581
  area with substrate MNLYFQS: 0.0583
  area with substrate NNLYFQS: 0.0653
  area with substrate PNLYFQS: 0.0547
  area with substrate QNLYFQS: 0.0781
  area with substrate TNLYFQS: 0.0556
  area with substrate WNLYFQS: 0.0545
  area with substrate YNLYFQS: 0.0617

## MGESLFKGPRDYNPISSSICHLTNESDGHTTSLYGIGFGPFIITNKHLFRRNNGTLVVQSLHGVFKVKDTWTLQQHLVDGRDMIIIRMPKDFPPFPQKLKFREPQREERICLVTTNFQTKSMSSMVSDTSCTFPSGDGIFWKHWIQTKDGQCGSPLVSTRDGFIVGIHSASNFTNTNNYFTSVPKNFMELLTNQEAQQWVSGWRLNADSVLWGGHKVFMVKPEEPFQPVKEATQL [T71W]
  area with substrate ANLYFQS: 0.0573
  area with substrate CNLYFQS: 0.0718
  area with substrate DNLYFQS: 0.0756
  area with substrate GNLYFQS: 0.0654
  area with substrate HNLYFQS: 0.0568
  area with substrate INLYFQS: 0.0546
  area with substrate KNLYFQS: 0.0494
  area with substrate LNLYFQS: 0.0881
  area with substrate NNLYFQS: 0.0511
  area with substrate TNLYFQS: 0.0557
  area with substrate WNLYFQS: 0.0523
  area with substrate YNLYFQS: 0.0583

## MGEMLFKGPRDYNPISSSICHLTNESDGHTTSLYGIGFGPFIITNKHLFRRNNGTLVVQSLHGVFKVKDTTTLQQHLVDGRDMIIIRMPKDFPPFPQKLKFREPQREERICLVTTNFQTKSMSSMVSDTSCTFPSGDGIFWKHWIQTKDGQCGSPLVSTRDGFIVGIHSASNFTNTNNYFTSVPKNFMELLTNQEAQQWVSGWRLNADSVLWGGHKVFMVKPEEPFQPVKEATQL [S4M]
  area with substrate ANLYFQS: 0.0604
  area with substrate CNLYFQS: 0.0694
  area with substrate DNLYFQS: 0.0732
  area with substrate FNLYFQS: 0.0551
  area with substrate GNLYFQS: 0.0728
  area with substrate HNLYFQS: 0.0646
  area with substrate INLYFQS: 0.0571
  area with substrate KNLYFQS: 0.0563
  area with substrate LNLYFQS: 0.0613
  area with substrate MNLYFQS: 0.0627
  area with substrate PNLYFQS: 0.0453
  area with substrate QNLYFQS: 0.0864
  area with substrate TNLYFQS: 0.0613
  area with substrate WNLYFQS: 0.058
  area with substrate YNLYFQS: 0.0427

## MGESLFKGPRDYNPISSSICHLTNESDGHTTSLYGIGFGPFIITNKHLFRRNNGTLVVQSLHGVFKVKDTTTLQQHLVDGRDMIIIRMPKDFPPFPQKLKFREPQREERICLVTTNFQTKSMSSMVSDTSCTFPSGDGIFWKHWIQTKDGQCGSPLVSTRDGFIVGIHSASNFTNTNNYFTSVPKNFMELLTNQEAQQWVSGWRLNADSVLWGGHKVFMVKCEEPFQPVKEATQL [P222C]
  area with substrate ANLYFQS: 0.066
  area with substrate CNLYFQS: 0.0989
  area with substrate DNLYFQS: 0.0677
  area with substrate FNLYFQS: 0.0645
  area with substrate GNLYFQS: 0.0689
  area with substrate HNLYFQS: 0.0576
  area with substrate INLYFQS: 0.0712
  area with substrate KNLYFQS: 0.068
  area with substrate LNLYFQS: 0.0599
  area with substrate MNLYFQS: 0.0402
  area with substrate PNLYFQS: 0.0587
  area with substrate SNLYFQS: 0.0938
  area with substrate TNLYFQS: 0.0617
  area with substrate VNLYFQS: 0.0643
  area with substrate WNLYFQS: 0.0704
  area with substrate YNLYFQS: 0.0698

## MGESLFKGPRDYNPISSSICHLTNESDGHTTSLYGIGFGPFIITNKHLFRRNNGTLVVQSLHGVFKVKDTTTLQQHLVDGRDMIIIRMPKDFPPFPQKLKFREPQREERICLVTTNFQTKSMSSMVSDTSCTFPSGDGIFWEHWIQTKDGQCGSPLVSTRDGFIVGIHSASNFTNTNNYFTSVPKNFMELLTNQEAQQWVSGWRLNADSVLWGGHKVFMVKPEEPFQPVKEATQL [K142E]
  area with substrate ANLYFQS: 0.0357
  area with substrate CNLYFQS: 0.0599
  area with substrate DNLYFQS: 0.0693
  area with substrate FNLYFQS: 0.0649
  area with substrate GNLYFQS: 0.115
  area with substrate HNLYFQS: 0.061
  area with substrate KNLYFQS: 0.0821
  area with substrate LNLYFQS: 0.068
  area with substrate NNLYFQS: 0.071
  area with substrate PNLYFQS: 0.0679
  area with substrate SNLYFQS: 0.0713
  area with substrate TNLYFQS: 0.0621
  area with substrate WNLYFQS: 0.0639
  area with substrate YNLYFQS: 0.0705

## MGESLFKGPRDYNPISSSICHLTNESDGHTTSLYGIGFGPFIITNKHLFRRNNGTLVVQSLHGVFKVKDTTTLQQHLVDGRDMWIIRMPKDFPPFPQKLKFREPQREERICLVTTNFQTKSMSSMVSDTSCTFPSGDGIFWKHWIQTKDGQCGSPLVSTRDGFIVGIHSASNFTNTNNYFTSVPKNFMELLTNQEAQQWVSGWRLNADSVLWGGHKVFMVKPEEPFQPVKEATQL [I84W]
  area with substrate ANLYFQS: 0.0564
  area with substrate CNLYFQS: 0.0609
  area with substrate DNLYFQS: 0.0502
  area with substrate FNLYFQS: 0.047
  area with substrate HNLYFQS: 0.0471
  area with substrate LNLYFQS: 0.0772
  area with substrate MNLYFQS: 0.0551
  area with substrate NNLYFQS: 0.062
  area with substrate PNLYFQS: 0.0589
  area with substrate QNLYFQS: 0.0444
  area with substrate RNLYFQS: 0.0537
  area with substrate SNLYFQS: 0.0473
  area with substrate TNLYFQS: 0.0508
  area with substrate VNLYFQS: 0.0554
  area with substrate WNLYFQS: 0.0481
  area with substrate YNLYFQS: 0.0483
